This note sets out measurements from article PMC5836133.

The list shows a part of the results. At the low end of the ranking the order means little.

This assay concerns T1, GST-NbGlk1(82-244).
T1 sequence: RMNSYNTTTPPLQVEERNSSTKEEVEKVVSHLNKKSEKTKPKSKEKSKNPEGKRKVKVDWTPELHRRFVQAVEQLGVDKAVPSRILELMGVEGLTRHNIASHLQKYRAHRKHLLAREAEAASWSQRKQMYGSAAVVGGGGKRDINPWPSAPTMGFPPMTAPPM
Briefly: protein-binding microarray.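 Also: rank-based score ranging −0.5 to +0.5 with E above 0.45 taken as significant binding.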 The conditions noted are these: NbGlk1 is a Golden2-like transcription factor of Nicotiana benthamiana; high values mean tight binding; most listed sequences are background and not binding sites; double strand, one strand shown.
ACTAACAT returned a binding signal of 0.121 E-score.

As to ACAGTTTG, the binding signal was -0.0957 E-score.

ACCGACAG yielded a binding signal of -0.122 E-score.

In turn, AGGCCGCC returned a binding signal of -0.275 E-score.

Consider ACCTGGTG, for which the binding signal was -0.303 E-score.

AAGCGTAG came in with a binding signal of -0.0582 E-score.

In turn, ATATCTAG displayed a binding signal of 0.392 E-score.

Turning to ACGGGAAA, the binding signal is 0.142 E-score.

Turning to AAAGCCCA, the binding signal is -0.255 E-score.

In the case of ATTCACGG, the binding signal was found to be 0.0555 E-score.

The sequence ATAGGAAT gave a binding signal of 0.275 E-score.

CAGAATCA came in with a binding signal of 0.373 E-score.

CAAACATC: the binding signal was -0.148 E-score.

Sequence ATGATAAT registered a binding signal of 0.119 E-score.

On to ACATGTTG, for which the binding signal was -0.119 E-score.

The sequence ACTGGTCG showed a binding signal of -0.26 E-score.

As for ATTCTGGC, the binding signal was found to be 0.159 E-score.

AAGTCGCG returned a binding signal of -0.0519 E-score.

AGAAATGG registered a binding signal of -0.0862 E-score.

As for ATGGCATC, the binding signal is -0.172 E-score.

AACTCTAT: the binding signal is -0.0808 E-score.

CACACTAG: the binding signal was 0.0121 E-score.

ATACCTCG displayed a binding signal of 0.0671 E-score.

In turn, ACACTAAA displayed a binding signal of 0.122 E-score.

Sequence ATTAGAGC registered a binding signal of 0.00505 E-score.

As to ATGGGCCA, the binding signal was -0.0975 E-score.

In the case of AAGCCGTC, the binding signal was -0.322 E-score.

As to AGACTTAA, the binding signal was 0.0189 E-score.

CAAGAATG came in with a binding signal of -0.118 E-score.

On to AGCCGAAG, for which the binding signal is -0.176 E-score.

ACACCTTA gave a binding signal of -0.0509 E-score.

In turn, AAGGGGTA showed a binding signal of -0.0374 E-score.

The sequence ATAGACCA returned a binding signal of -0.229 E-score.

The sequence ACTTAGGA showed a binding signal of 0.00132 E-score.

AGAGTCGC returned a binding signal of -0.305 E-score.

ATCCCGTC gave a binding signal of 0.144 E-score.

Take CAACGCAA: the binding signal is 0.155 E-score.

As for ACTGATAC, the binding signal was 0.204 E-score.

In the case of CACGTCCC, the binding signal was -0.212 E-score.

Consider ATGGCCGG, for which the binding signal is -0.275 E-score.

Consider CACATACG, for which the binding signal is 0.0752 E-score.

ACGCGCCG yielded a binding signal of -0.204 E-score.

With AACCACAC, the binding signal is -0.138 E-score.

ACCGATCA had a binding signal of -0.0483 E-score.

As to ATTATTCG, the binding signal is 0.192 E-score.

In the case of AATAGGAA, the binding signal is 0.121 E-score.

The sequence AAGCCAGG displayed a binding signal of -0.168 E-score.

On to AGAAACTG, for which the binding signal was -0.0807 E-score.

Turning to ATCAAGTA, the binding signal came to 0.104 E-score.

Consider AACCCGGT, for which the binding signal is -0.271 E-score.

ACTAGTTG came in with a binding signal of -0.048 E-score.

The sequence AACATGGA registered a binding signal of 0.111 E-score.

The sequence AATTGTAC gave a binding signal of -0.0224 E-score.

The sequence AAGTCAGA yielded a binding signal of 0.00365 E-score.

As for AAGAGCAA, the binding signal was -0.0617 E-score.

In the case of ACAACGGT, the binding signal is -0.0975 E-score.

ATAGTAAC yielded a binding signal of -0.0239 E-score.

Sequence ACCCGCGG registered a binding signal of -0.121 E-score.

The sequence AGATCTCA showed a binding signal of 0.413 E-score.

AACTAGAA displayed a binding signal of 0.207 E-score.

For the sequence ATTCTGAC, the binding signal turned out to be 0.242 E-score.

In the case of ACCTCATG, the binding signal was -0.209 E-score.

With AGAGTTCA, the binding signal was -0.0709 E-score.

For the sequence AGGTAAAT, the binding signal was 0.205 E-score.

As for AAAGTGGA, the binding signal was found to be 0.102 E-score.

Sequence ACAGAGAC showed a binding signal of -0.0479 E-score.

As for CACTTCTC, the binding signal is -0.142 E-score.

The sequence ACGGAGTC had a binding signal of -0.29 E-score.

Turning to ATGAACAG, the binding signal was -0.0477 E-score.

Consider AACAATCA, for which the binding signal is 0.13 E-score.

For the sequence AAGCTCCG, the binding signal was -0.104 E-score.

On to AATTCAGC, for which the binding signal was -0.0198 E-score.

AATCACGG came in with a binding signal of 0.256 E-score.

AATACCGA showed a binding signal of 0.0517 E-score.

For the sequence AGGTGCTC, the binding signal was -0.279 E-score.

Turning to AAAACTCG, the binding signal is -0.00869 E-score.

Turning to AGAGGCCT, the binding signal was -0.238 E-score.

With ACGAGCAC, the binding signal is -0.193 E-score.

Take AACTAGAC: the binding signal was -0.102 E-score.

With AACACCGC, the binding signal was -0.0281 E-score.

Sequence AGGGGGAT had a binding signal of 0.0335 E-score.

On to AGCGTGAC, for which the binding signal was -0.205 E-score.

In turn, AACAAGTT came in with a binding signal of -0.0851 E-score.

The sequence AAAGACCG registered a binding signal of -0.153 E-score.

Consider CAATGATG, for which the binding signal amounted to 0.0618 E-score.

In turn, ACTTCCCT showed a binding signal of -0.115 E-score.

In turn, AAGGCCTC returned a binding signal of -0.248 E-score.

Consider ACAGTTGG, for which the binding signal is -0.175 E-score.

AATATATA returned a binding signal of 0.27 E-score.

As for AGGACGTA, the binding signal is -0.0232 E-score.

For the sequence ACATTCTA, the binding signal came out at 0.106 E-score.

For ATTAAACG, the binding signal was -0.101 E-score.

Turning to ACAGCCAG, the binding signal was -0.182 E-score.

In turn, AGAGTCGG registered a binding signal of -0.192 E-score.

Take CAAGGAAG: the binding signal is -0.0946 E-score.

ACCACTCA gave a binding signal of 0.036 E-score.

AAGGTGCC came in with a binding signal of -0.214 E-score.

Consider AAAGAAAA, for which the binding signal was 0.147 E-score.

Regarding AACCATCG, the binding signal was -0.0487 E-score.

Regarding ACCGTCAT, the binding signal was -0.0655 E-score.

AAGACGAC registered a binding signal of -0.212 E-score.

As to AGATTTAG, the binding signal was 0.276 E-score.

Sequence AAGTTTCA yielded a binding signal of 0.0242 E-score.

As for AAAAGTGT, the binding signal was -0.0392 E-score.

As for AATTTCAT, the binding signal stood at 0.238 E-score.

ATTACACA displayed a binding signal of 0.31 E-score.

In turn, AGGTGCTG registered a binding signal of -0.117 E-score.

On to ACCAGCAT, for which the binding signal was 0.0235 E-score.

The sequence AACTCAAG displayed a binding signal of -0.049 E-score.

In turn, CACGGCTC showed a binding signal of -0.197 E-score.

Turning to ATATCCAT, the binding signal was determined as 0.43 E-score.

Sequence AGGCCCCT gave a binding signal of -0.387 E-score.

ACACTGCG showed a binding signal of -0.154 E-score.

On to AAACGCTG, for which the binding signal came out at 0.00984 E-score.

Sequence ATACATCA returned a binding signal of 0.0926 E-score.

As to ACACCTGC, the binding signal is -0.186 E-score.

Sequence ATCTAACG came in with a binding signal of 0.218 E-score.

In turn, ATACGTTG had a binding signal of 0.127 E-score.

Consider AATCATGT, for which the binding signal is 0.304 E-score.

With AGCTATAC, the binding signal was -0.0325 E-score.

Regarding ACTTTTGC, the binding signal was -0.1 E-score.

Consider CAACCAGC, for which the binding signal is -0.206 E-score.

Consider ATGACAAT, for which the binding signal was found to be 0.139 E-score.

In the case of CACCAAAA, the binding signal is 0.039 E-score.

ATTAGATA came in with a binding signal of 0.304 E-score.

With CACGGGAA, the binding signal came to 0.00932 E-score.

ACTAGGCG yielded a binding signal of -0.0141 E-score.

Consider AACTCTGT, for which the binding signal is -0.0296 E-score.

In the case of ATAGCTAG, the binding signal was -0.0111 E-score.

The sequence AGAAGGGC registered a binding signal of -0.299 E-score.

ACGGGCTC had a binding signal of -0.215 E-score.

On to ACGCTATC, for which the binding signal is 0.125 E-score.

In turn, ACGCACAG gave a binding signal of -0.238 E-score.

With AAATTTTG, the binding signal came to 0.193 E-score.

On to ATGTGTGA, for which the binding signal amounted to 0.103 E-score.

ATAGGGGC showed a binding signal of -0.206 E-score.

Regarding AGACTCGG, the binding signal was -0.281 E-score.

AGCACTCC returned a binding signal of -0.2 E-score.

AAGTCACC displayed a binding signal of -0.247 E-score.

On to ATCCAAAA, for which the binding signal turned out to be 0.261 E-score.

ATAGGGCA returned a binding signal of -0.053 E-score.

Sequence AGATGAGC gave a binding signal of -0.231 E-score.

On to CACTTAAG, for which the binding signal was -0.0632 E-score.

Turning to ACAGGCTG, the binding signal is -0.267 E-score.

Sequence AGAAAGCT showed a binding signal of -0.0777 E-score.

In the case of ACCAGGGG, the binding signal was -0.155 E-score.

With ATGTTTTC, the binding signal worked out at 0.0962 E-score.

The sequence ACGCCAAC returned a binding signal of -0.253 E-score.

Consider ACGGGATG, for which the binding signal was -0.165 E-score.

On to AGATAAGA, for which the binding signal was 0.0592 E-score.

Sequence ACATCATG displayed a binding signal of -0.0829 E-score.

Regarding AGTAGAAC, the binding signal is -0.0712 E-score.

AAAGGGCG: the binding signal was -0.213 E-score.

In turn, ATCGAGAT gave a binding signal of 0.327 E-score.

As for ACACACCT, the binding signal is -0.176 E-score.

In the case of AGGGACTC, the binding signal was -0.144 E-score.

The sequence AACAAGGG showed a binding signal of -0.0574 E-score.

AACTAGGC displayed a binding signal of 0.0165 E-score.

In turn, ACAGCTCG showed a binding signal of -0.0196 E-score.

Sequence AGTAACGG gave a binding signal of -0.192 E-score.

The sequence CAAATCAC came in with a binding signal of 0.272 E-score.

The sequence ATGTGTCC returned a binding signal of -0.128 E-score.

The sequence AGTTTCTC came in with a binding signal of -0.118 E-score.

The sequence AAACTCAT gave a binding signal of -0.0877 E-score.

Take CACGTGTC: the binding signal was -0.129 E-score.

ACCAGATG yielded a binding signal of 0.00702 E-score.

The sequence ACCTGACC yielded a binding signal of -0.226 E-score.

AACAGGTC returned a binding signal of -0.131 E-score.

For ACAAGCCG, the binding signal is -0.275 E-score.

Consider AGCGAGCG, for which the binding signal is -0.114 E-score.

Regarding CAGCGGGG, the binding signal was -0.223 E-score.

On to AACCGGAC, for which the binding signal is -0.223 E-score.
